# Reference: PubChem BioAssay AID588591 (National Center for Advancing Translational Sciences (NCATS), 2011)
# Hit rate of the full screen: of about 390,000 compounds, about 4,700 (1.2%) were called active. Inconclusive results, whose numbers are uncertain, are shown with a selection of clear calls. Calls come from the whole dose curve; as a rule, active = well fitted inhibition curve with a large enough effect; inconclusive = small, poorly fitted or top-dose-only effect, or another doubt; inactive = no such curve, though single readings can be large or run the other way. Where the call is inconclusive, the potency comes from a doubtful curve fit.
# Target: DNA polymerase eta (Homo sapiens) (UniProt Q9Y253)
# Test: qHTS for Inhibitors of Polymerase Eta
# Conditions: recombinant Pol eta, fluorescent DNA replication assay; series mostly up to 114 µM
# In short: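 Fluorescent replication assay: 50 nM final substrate added after a 15 min room-temperature compound preincubation with 10 nM enzyme. Signal taken at 0 min and again at 10 min.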
# Potency is the fitted concentration of half-maximal effect; tags give direction and shape of the fitted curve.
# UniProt Q9Y253, sequence (Q9Y253 whole entry, looked up): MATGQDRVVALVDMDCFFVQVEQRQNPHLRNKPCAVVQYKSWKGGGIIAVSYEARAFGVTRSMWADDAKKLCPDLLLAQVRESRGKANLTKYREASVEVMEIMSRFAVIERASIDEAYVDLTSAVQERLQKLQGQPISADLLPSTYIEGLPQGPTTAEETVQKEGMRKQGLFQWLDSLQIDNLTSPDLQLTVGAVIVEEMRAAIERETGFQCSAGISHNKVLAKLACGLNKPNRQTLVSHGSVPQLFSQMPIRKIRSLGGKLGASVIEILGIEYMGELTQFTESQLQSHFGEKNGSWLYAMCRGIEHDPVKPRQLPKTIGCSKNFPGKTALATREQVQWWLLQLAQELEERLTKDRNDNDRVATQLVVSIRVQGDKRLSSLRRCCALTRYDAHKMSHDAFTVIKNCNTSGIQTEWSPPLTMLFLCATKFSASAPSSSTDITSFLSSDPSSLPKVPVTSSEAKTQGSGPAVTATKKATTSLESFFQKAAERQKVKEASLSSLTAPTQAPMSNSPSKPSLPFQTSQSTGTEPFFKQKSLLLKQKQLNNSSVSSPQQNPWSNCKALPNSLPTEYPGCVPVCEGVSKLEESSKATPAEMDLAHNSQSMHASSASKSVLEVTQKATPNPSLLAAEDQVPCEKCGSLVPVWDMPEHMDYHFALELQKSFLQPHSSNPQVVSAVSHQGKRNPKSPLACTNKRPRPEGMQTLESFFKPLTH
row,Structure (SMILES),Potency
1,COc1cc(/C=C2\SC(=S)N(NS(=O)(=O)c3ccc(C)cc3)C2=O)ccc1O,"inconclusive: 44.7 µM [inhibitor, partial curve, poor fit]"
2,N#C/C(=C\c1ccc(O)c(O)c1)C(=O)Nc1cccc2ncccc12,active: 2.82 µM
3,CC(/C=N/NC(=O)c1cccs1)=C\c1ccco1,"inconclusive: 89.1 µM [inhibitor, partial curve, poor fit]"
4,Clc1ccc(Cn2c(/C=C/c3ccco3)nc3ccccc32)cc1,"inconclusive: 20 µM [inhibitor, partial curve]"
5,CCNC(=O)COC(=O)c1cc(-c2ccco2)nc2ccccc12,active: 20 µM
6,CC1CCc2sc(C(=O)N/N=C/c3ccc([N+](=O)[O-])cc3)cc2C1 (stereo not drawn),"inconclusive: 2.51 µM [inhibitor, full curve, poor fit]"
7,CC(C)c1ccc(Nc2cc(C(=O)NC3CCCCC3)c3ccccc3n2)cc1,inactive
8,COc1cccc(NC(=O)c2cc(-c3ccc(C)o3)nc3ccccc23)c1,active: 79.4 µM
9,Cc1cccc(C(=O)NCN2CCN(c3ccccc3C#N)CC2)c1,"inconclusive: 7.08 µM [inhibitor, single point]"
10,N#Cc1cc2sc3nnc(-c4ccncc4)n3c2cc1C#N,"inconclusive: 39.8 µM [inhibitor, single point]"
11,COc1ccc(NC(=O)c2ccc(-n3c(C)ccc3C)cc2)c(OC)c1,"inconclusive: 89.1 µM [inhibitor, partial curve, poor fit]"
12,NC1(C(=O)O)CCc2cc(C(=O)O)ccc21 (stereo not drawn),"inconclusive: 10 µM [inhibitor, partial curve]"
13,CC1OC(CC(=O)O)CC2=C1C(=O)c1c(O)cccc1C2=O (stereo not drawn),active: 25.1 µM
14,O=C(NC1CCCC1)c1sc(=S)n2c1[nH]c(=O)c1ccccc12,active: 56.2 µM
15,CC(=O)Oc1cc2cccc(OC(C)=O)c(=O)c2c(OC(C)=O)c1OC(C)=O,active: 10 µM
16,Cc1ccc(C(=O)OCC(=O)Nc2ccc(C)c(S(=O)(=O)N3CCCCC3)c2)o1,"inconclusive: 56.2 µM [inhibitor, partial curve, poor fit]"
17,Cc1cc(-c2csc(N)n2)c(C)n1Cc1ccco1,inactive
18,Cc1ccc(OCC(=O)N2N=C(C(F)(F)F)CC2(O)C(C)(C)C)cc1C (stereo not drawn),"inconclusive: 56.2 µM [inhibitor, partial curve, poor fit]"
19,CC1(C)CC(C)(c2ccc(O)cc2O)N(c2cccc(Cl)c2)C(=S)N1 (stereo not drawn),"inconclusive: 79.4 µM [inhibitor, partial curve, poor fit]"
20,S=c1[nH]c2cc(Cl)c3cccnc3c2o1,inactive
21,COc1cc(/C=C(/C(=O)O)c2ccc(-c3ccccc3)cc2)cc(OC)c1OC,"inconclusive: 39.8 µM [inhibitor, full curve, poor fit]"
22,O=S(=O)(CCN1CCCCC1)CCS(=O)(=O)CCN1CCCCC1,"inconclusive: 89.1 µM [inhibitor, partial curve, poor fit]"
23,Cc1noc(/C=C/c2ccccc2F)c1S(=O)(=O)N1CCC(C(=O)N(C)Cc2ccco2)CC1,inactive

row,Structure (SMILES),Potency
1,CCOc1ccccc1C(=O)NCCc1cnc[nH]1,inactive
2,O=C(O)c1ccccc1-c1nc2ccccc2n1-c1ccccc1,inactive
3,COc1ccc2nc(NC(=O)c3cc(=O)c4ccccc4o3)sc2c1,"inconclusive: 100 µM [inhibitor, single point]"
4,Cc1c(C(=O)Nc2ccncc2)sc2nc(-c3ccc(F)cc3)cn12,"inconclusive: 35.5 µM [inhibitor, single point]"
5,Cc1ccccc1NC(=O)CSc1nc2[nH]c(=O)cc(O)c2s1,"inconclusive: 12.6 µM [inhibitor, partial curve, poor fit]"
6,CCN(CC)CC1CN(N=Cc2ccc([N+](=O)[O-])o2)C(=O)O1 (stereo not drawn),"inconclusive: 35.5 µM [inhibitor, partial curve, poor fit]"
7,O=C(CCc1nc2ccccc2c(=O)[nH]1)OCc1nnc(-c2ccccc2)o1,"inconclusive: 25.1 µM [inhibitor, partial curve, poor fit]"
8,COc1cccc(C(=O)Nc2ccc3c(c2)C(=O)c2ccccc2C3=O)c1,"inconclusive: 17.8 µM [inhibitor, full curve]"
9,COC(=O)c1c(NC(=O)c2ccc(Br)s2)sc2c1CCC2,inactive
10,CCOCCCNCc1cc(Cl)cc(Cl)c1OCC,inactive
11,O=C(O)c1ccccc1-n1cccc1C(=O)O,active: 39.8 µM
12,COc1ccc(Br)cc1S(=O)(=O)N1CCCC1,"inconclusive: 100 µM [inhibitor, partial curve, poor fit]"
13,COCCNC(=O)c1ccc(CSc2nc3ccncc3n2Cc2ccccc2)cc1,inactive
14,Cc1ccc(S(=O)(=O)N2C(=O)c3cccc4cccc2c34)cc1,"inconclusive: 25.1 µM [inhibitor, single point]"
15,Cn1ncc(Br)c1C(=O)NC12CC3CC(CC(C3)C1)C2,"inconclusive: 89.1 µM [inhibitor, partial curve, poor fit]"
16,CCOC(=O)C1CCN(C(=O)CSc2ccc(Cl)cc2)CC1,"inconclusive: 0.631 µM [inhibitor, full curve, poor fit]"
17,Cc1ccc(-c2cc(C(F)(F)F)n3ncc(C(=O)N4CCN(C)CC4)c3n2)cc1,"inconclusive: 79.4 µM [inhibitor, partial curve, poor fit]"
18,O=C(N/N=C\C=C\c1ccc([N+](=O)[O-])o1)c1cccs1,active: 50.1 µM
19,Cc1ccc(NC(=O)CSc2nc(-c3cccs3)nc3cc(=O)[nH]n23)cc1,active: 79.4 µM
20,O=C(CSc1nc2ncccc2[nH]1)NCc1ccco1,"inconclusive: 35.5 µM [inhibitor, partial curve, poor fit]"
21,CSC1=NSC2=NC(=O)/C(=C\c3ccc(OC(=O)c4ccco4)cc3)C(=N)N12,"inconclusive: 56.2 µM [inhibitor, partial curve, poor fit]"
22,CC(NC(=O)C1CCN(S(=O)(=O)c2cccc3nonc23)CC1)c1ccccc1 (stereo not drawn),"inconclusive: 39.8 µM [inhibitor, partial curve, poor fit]"
23,Cc1ccc(N2CCN(C(=O)c3cc(-c4ccc(F)cc4)[nH]c3C)CC2C)cc1 (stereo not drawn),inactive

row,Structure (SMILES),Potency
1,CCNS(=O)(=O)c1cccc(C(=O)c2c(C)cc3ccccn23)c1,"inconclusive: 35.5 µM [inhibitor, partial curve, poor fit]"
2,CC(=C\c1ccco1)/C=C1/SC(=S)N(CC(=O)O)C1=O,active: 39.8 µM
3,Cc1cccc(C2C3=C(Nc4[nH]n(-c5ccccc5)c(=O)c42)c2ccccc2C3=O)c1 (stereo not drawn),active: 12.6 µM
4,COc1ccc(OC)c(C2Nc3c(Cl)ccc(C(=O)O)c3C3C=CCC32)c1 (stereo not drawn),inactive
5,COc1ccc(NS(=O)(=O)c2ccc(NC(=S)NC(=O)/C=C/c3ccccc3)cc2)nn1,active: 79.4 µM
6,CCCc1cc(=O)n2[nH]c(NC(=O)c3ccc(C(C)(C)C)cc3)nc2n1,"inconclusive: 100 µM [inhibitor, single point]"
7,Cc1nc(SCc2ccc(F)cc2)n[nH]1,inactive
8,Cc1ccc(S(=O)(=O)N2[C@@H](c3ccc(Cl)c(Cl)c3)C(C(=O)O)=C[C@H]2CC2CCCC2)cc1,"inconclusive: 89.1 µM [inhibitor, partial curve]"
9,O=C(CNC(=O)[C@@H]1Cc2ccccc2CN1)NCc1ccco1,"inconclusive: 20 µM [inhibitor, partial curve, poor fit]"
10,CC(C)CCNC(=O)c1ccc2c(c1)NC(=O)C(CS(=O)(=O)Cc1ccc(F)cc1)N2 (stereo not drawn),"inconclusive: 89.1 µM [inhibitor, single point]"
11,O=c1[nH]c(Nc2ccccn2)cc2ccccc12,"inconclusive: 31.6 µM [inhibitor, partial curve, poor fit]"
12,CN1C(=CC=C2C=C(I)C(=O)C(I)=C2)C(C)(C)c2ccccc21,"inconclusive: 50.1 µM [inhibitor, partial curve, poor fit]"
13,COc1ccc(NC(=O)c2cc3c(COC(C)=O)cnc(C)c3oc2=Nc2cccc(C(=O)O)c2)c(OC)c1,active: 3.16 µM
14,O=C(CCl)c1ccc(Cc2ncc(C(F)(F)F)cc2Cl)s1,"inconclusive: 39.8 µM [inhibitor, single point]"
15,COc1ccc(NC(=O)/C(C#N)=C\c2cc(OC)c(OCc3ccc(C(=O)O)cc3)cc2Br)cc1,active: 50.1 µM
16,COc1cc(OC)cc(C(=O)Nc2cc(-c3nc4cc(Cl)ccc4o3)ccc2Cl)c1,inactive
17,CCOc1ccc(N(C)Cc2cc(=O)oc3ccc(OCC)cc23)cc1,"inconclusive: 89.1 µM [inhibitor, partial curve, poor fit]"
18,COc1cccc(CNC(=O)c2ccc3nc(-c4ccc(F)cc4)c(-c4ccc(F)cc4)nc3c2)c1,"inconclusive: 56.2 µM [inhibitor, partial curve, poor fit]"
19,C[C@@H]1O[C@@H](O[C@H]2[C@H](O)[C@@H](O)[C@H](Oc3c(-c4ccc(O)c(O)c4)oc4cc(O)cc(O)c4c3=O)O[C@@H]2CO)[C@H](O)[C@H](O)[C@H]1O,"inconclusive: 28.2 µM [inhibitor, single point]"
20,Brc1ccc2[nH]c3c(NCc4ccccn4)ncnc3c2c1,"inconclusive: 14.1 µM [inhibitor, full curve, poor fit]"
21,Cn1c(SCC(=O)NC(=O)Cc2ccccc2)nnc1-c1ccc(F)cc1,inactive
22,Cc1cc(=O)[nH]c(N/N=C/c2ccc(OC(=O)c3ccco3)cc2)n1,active: 50.1 µM
